Data on 27 molecules can be found in the supplement of paper PMC10037445.

The subject of assay [1] is RAW-Dual. The experiment in a line: IRF Lucia reporter activity, fold change vs agonist alone; cytotoxicity flag (confluency mask): not cytotoxic; higher = enhanced IRF activity. Summed up:
(§1)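 Reporter activity is given as fold change relative to agonist-alone wells. To measure it, 50 nL of library stock was pin-tooled onto RAW-Dual macrophages (50,000 cells/well, DMEM, 384-well plates), a PRR agonist followed 1 h later, and cells stayed at 37 °C, 5% CO2. Twenty hours on, supernatant was assayed for IRF (QuantiLuc luminescence) and NF-κB (QuantiBlue, 620 nm absorbance), and wells under 70% of agonist-control IncuCyte confluency in both mask sets were marked cytotoxic.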

The subject of assay [2] is RAW-Dual. As to the kind of experiment: IRF Lucia reporter activity, fold change vs agonist alone; cytotoxicity flag (confluency mask): cytotoxic (confluency <70% of control); higher = enhanced IRF activity. Summed up:
as §1

The subject of assay [3] is RAW-Dual. The experiment in a line: IRF Lucia reporter activity, fold change vs agonist alone; higher = enhanced IRF activity. The note with it: agonist: MPLA (TLR4) […]. The method in brief: as §1
Where [4] appears, read: agonist: 3'3'-cGAMP (STING) 10 ug/mL.
Where [5] appears, read: library stock concentration (final ~1000-fold dilution): 10 mM, cytotoxicity flag (confluency mask): cytotoxic (confluency <70% of control).
[6] abbreviates: library stock concentration (final ~1000-fold dilution): 10 mM, cytotoxicity flag (confluency mask): not cytotoxic.

Whole data set: some 2,900 compounds, median “IRF Lucia reporter activity, fold change vs agonist alone” near 0.9, cut for the highest 2% near 2.8. The list shows a part of the results.

Regarding `COCCOc1nc(-c2ccc(Cl)c(Cl)c2)n(-c2ccc(NC(=O)CCl)cc2)n1` (library stock concentration (final ~1000-fold dilution): 10 mM), the “IRF Lucia reporter activity” value in the assay on RAW-Dual [1] (setting [4]) was found to be 0.0137; in the assay with RAW-Dual [1] (agonist: LPS (TLR4) 0.1 ug/mL), 0.0283; in the assay with RAW-Dual [2] (setting [4]) it was 0.0112; in the assay with RAW-Dual [2] (agonist: LPS (TLR4) 0.1 ug/mL), 0.0112.

`CCC1(O)C(=O)OCc2c1cc1n(c2=O)Cc2cc3c(CN(C)C)c(O)ccc3nc2-1.Cl` (stereo unspecified): in the assay with RAW-Dual [3] (setting [5]), the “IRF Lucia reporter activity” value came to 3.1.

Consider `CCC1(O)C(=O)OCc2c1cc1n(c2=O)Cc2cc3c(CN(C)C)c(O)ccc3nc2-1.Cl` (stereo unspecified) (library stock concentration (final ~1000-fold dilution): 10 mM), for which the “IRF Lucia reporter activity” value was 2.13 with RAW-Dual [2] (setting [4]) and 2.49 in the assay with RAW-Dual [2] (agonist: LPS (TLR4) 0.1 ug/mL).

On to `CC(=O)NC1C(NC(=N)N)C=C(C(=O)O)OC1C(O)C(O)CO` (stereo unspecified), for which the “IRF Lucia reporter activity” value with RAW-Dual [3] (library stock concentration (final ~1000-fold dilution): 10 mM water, cytotoxicity flag (confluency mask): not cytotoxic) came out at 1.4.

On to `CC(=O)NC1C(NC(=N)N)C=C(C(=O)O)OC1C(O)C(O)CO` (stereo unspecified) (library stock concentration (final ~1000-fold dilution): 10 mM water), for which the “IRF Lucia reporter activity” value in the assay with RAW-Dual [1] (setting [4]) was 1.34; in the assay on RAW-Dual [1] (agonist: LPS (TLR4) 0.1 ug/mL), 0.9.

On to `C=CCc1ccc(O)c(OC)c1` (library stock concentration (final ~1000-fold dilution): 10 mM), for which the “IRF Lucia reporter activity” value was determined as 0.478 in the assay on RAW-Dual [1] (setting [4]) and 0.888 in the assay on RAW-Dual [1] (agonist: LPS (TLR4) 0.1 ug/mL).

For `COC(C(=O)N1Cc2[nH]nc(NC(=O)c3ccc(N4CCN(C)CC4)cc3)c2C1)c1ccccc1` (stereo unspecified), in the assay on RAW-Dual [3] (setting [6]), the “IRF Lucia reporter activity” value was 0.147.

As for `COC(C(=O)N1Cc2[nH]nc(NC(=O)c3ccc(N4CCN(C)CC4)cc3)c2C1)c1ccccc1` (stereo unspecified) (library stock concentration (final ~1000-fold dilution): 10 mM), the “IRF Lucia reporter activity” value with RAW-Dual [1] (setting [4]) was found to be 0.149; in the assay with RAW-Dual [1] (agonist: LPS (TLR4) 0.1 ug/mL), 0.162.

On to `CCS(=O)(=O)O.COC(=O)c1ccc2c(c1)NC(=O)/C2=C(\Nc1ccc(N(C)C(=O)CN2CCN(C)CC2)cc1)c1ccccc1` (library stock concentration (final ~1000-fold dilution): 10 mM), for which the “IRF Lucia reporter activity” value in the assay on RAW-Dual [1] (setting [4]) was determined as 0.0841; in the assay with RAW-Dual [1] (agonist: LPS (TLR4) 0.1 ug/mL), 0.246.

Turning to `CCS(=O)(=O)O.COC(=O)c1ccc2c(c1)NC(=O)/C2=C(\Nc1ccc(N(C)C(=O)CN2CCN(C)CC2)cc1)c1ccccc1`, the “IRF Lucia reporter activity” value with RAW-Dual [3] (setting [6]) stood at 0.215.

On to `CS(=O)(=O)O.CS(=O)(=O)O.Cc1ccc(C(=O)Nc2ccc(CN3CCN(C)CC3)c(C(F)(F)F)c2)cc1C#Cc1cnc2[nH]ncc2c1`, for which, in the assay on RAW-Dual [3] (setting [5]), the “IRF Lucia reporter activity” value amounted to 0.0201.

For the molecule `CS(=O)(=O)O.CS(=O)(=O)O.Cc1ccc(C(=O)Nc2ccc(CN3CCN(C)CC3)c(C(F)(F)F)c2)cc1C#Cc1cnc2[nH]ncc2c1` (library stock concentration (final ~1000-fold dilution): 10 mM), the “IRF Lucia reporter activity” value amounted to 0.00912 with RAW-Dual [2] (setting [4]) and 0.0192 in the assay with RAW-Dual [2] (agonist: LPS (TLR4) 0.1 ug/mL).

As to `CONC(=O)c1ccccc1Nc1cc(Nc2cc(C)nn2C(C)C)ncc1Cl` (library stock concentration (final ~1000-fold dilution): 10 mM), the “IRF Lucia reporter activity” value with RAW-Dual [1] (setting [4]) worked out at 0.345; in the assay on RAW-Dual [1] (agonist: LPS (TLR4) 0.1 ug/mL) it was 0.679.

Turning to `CCS(=O)(=O)Nc1ccc(Oc2ccc(F)cc2F)c(-c2cn(C)c(=O)c3[nH]ccc23)c1` (library stock concentration (final ~1000-fold dilution): 10 mM), the “IRF Lucia reporter activity” value came to 0.225 in the assay with RAW-Dual [2] (setting [4]) and 0.107 in the assay with RAW-Dual [2] (agonist: LPS (TLR4) 0.1 ug/mL).

As to `CNc1cccc(CCOc2ccc3c(c2)CN(CC(F)(F)F)C(=O)C(CC(=O)O)C3)n1` (stereo unspecified) (library stock concentration (final ~1000-fold dilution): 10 mM), the “IRF Lucia reporter activity” value in the assay on RAW-Dual [1] (setting [4]) turned out to be 1.23; with RAW-Dual [1] (agonist: LPS (TLR4) 0.1 ug/mL) it was 1.19.

With `CNc1cccc(CCOc2ccc3c(c2)CN(CC(F)(F)F)C(=O)C(CC(=O)O)C3)n1` (stereo unspecified), the “IRF Lucia reporter activity” value in the assay with RAW-Dual [3] (setting [6]) was determined as 1.18.

Turning to `C=C(C)[C@@H]1CC[C@]2(C(=O)O)CC[C@]3(C)[C@H](CC[C@@H]4[C@@]5(C)CC[C@H](O)C(C)(C)[C@@H]5CC[C@]43C)[C@@H]12` (library stock concentration (final ~1000-fold dilution): 10 mM), the “IRF Lucia reporter activity” value in the assay with RAW-Dual [1] (setting [4]) amounted to 0.325; with RAW-Dual [1] (agonist: LPS (TLR4) 0.1 ug/mL), 1.04.

Consider `O=c1ccc2cc3ccoc3cc2o1`, for which, in the assay on RAW-Dual [3] (setting [6]), the “IRF Lucia reporter activity” value came to 1.07.

With `O=c1ccc2cc3ccoc3cc2o1` (library stock concentration (final ~1000-fold dilution): 10 mM), the figures for the “IRF Lucia reporter activity” value in the assay on RAW-Dual [1] (setting [4]) and in the assay on RAW-Dual [1] (agonist: LPS (TLR4) 0.1 ug/mL) were 0.975 and 1, respectively.

For `CN(C)CC/C=C1/c2ccccc2COc2ccc(CC(=O)O)cc21.Cl`, the “IRF Lucia reporter activity” value in the assay on RAW-Dual [3] (setting [6]) turned out to be 1.08.

As to `CN(C)CC/C=C1/c2ccccc2COc2ccc(CC(=O)O)cc21.Cl` (library stock concentration (final ~1000-fold dilution): 10 mM), the “IRF Lucia reporter activity” value in the assay with RAW-Dual [1] (setting [4]) was 1.04; in the assay with RAW-Dual [1] (agonist: LPS (TLR4) 0.1 ug/mL), 1.01.

Consider `CCCCCCOC(=O)c1cc(O)c(=O)c2c(O)c(O)c(OC)cc2c1` (library stock concentration (final ~1000-fold dilution): 10 mM), for which the “IRF Lucia reporter activity” value in the assay with RAW-Dual [1] (setting [4]) was determined as 0.0307; with RAW-Dual [1] (agonist: LPS (TLR4) 0.1 ug/mL) it was 0.492.

For `CS(=O)(=O)Nc1cc2occ(NC=O)c(=O)c2cc1Oc1ccccc1`, the “IRF Lucia reporter activity” value in the assay with RAW-Dual [3] (setting [6]) worked out at 1.08.

Take `CS(=O)(=O)Nc1cc2occ(NC=O)c(=O)c2cc1Oc1ccccc1` (library stock concentration (final ~1000-fold dilution): 10 mM): the results for the “IRF Lucia reporter activity” value in the assay on RAW-Dual [1] (setting [4]) and in the assay with RAW-Dual [1] (agonist: LPS (TLR4) 0.1 ug/mL) were 1.04 and 0.975, respectively.

Turning to `CC(C)NC(=O)COc1cccc(-c2nc(Nc3ccc4[nH]ncc4c3)c3ccccc3n2)c1` (library stock concentration (final ~1000-fold dilution): 10 mM), the “IRF Lucia reporter activity” value is 0.0593 in the assay on RAW-Dual [1] (setting [4]) and 1.42 in the assay with RAW-Dual [1] (agonist: LPS (TLR4) 0.1 ug/mL).

With `COc1ccc2c3c1OC1CC(O)C=CC31CCN(C)C2` (stereo unspecified), in the assay on RAW-Dual [3] (setting [6]), the “IRF Lucia reporter activity” value worked out at 1.16.

Regarding `COc1ccc2c3c1OC1CC(O)C=CC31CCN(C)C2` (stereo unspecified) (library stock concentration (final ~1000-fold dilution): 10 mM), the “IRF Lucia reporter activity” value in the assay with RAW-Dual [1] (setting [4]) came out at 1.1; with RAW-Dual [1] (agonist: LPS (TLR4) 0.1 ug/mL) it was 1.24.
